Reference: the RNAGym collection of RNA variant scans (doi:10.1073/pnas.2313332121)
This sample is rich in variants without activity.

B1: TPR 5TU (parent)
chain: GGAUCUUCUCGAUCUAACAAAAAAGACAAAUCUGCCACAAAGCUUGAGAGCAUCUUCGGAUGCAGAGGCGGCAGCCUUCGGUGGCGCGAUAGCGCCAACGUUCUCAACUAUGACACGCAAAACGCGUGCUCCGUUGAAUGGAGUUUAUCAUG

Variants of: B1
Assay: polymerase ribozyme fitness, log enrichment relative to wild type (log ratio); higher = more active; in vitro selection for triplet polymerase activity
In short: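 Both subunits of a heterodimeric triplet polymerase ribozyme were given their own mutant library, built by PCR and transcribed. Each library was annealed with a biotinylated primer, the partner subunit and triplets, incubated frozen at −7 °C, and its extended constructs gel-excised, captured on streptavidin beads and amplified by RT-PCR, all in one round done in triplicate. Fitness is the logarithm of genotype enrichment relative to wild-type enrichment, with replicates averaged by inverse-variance weighting. That logarithm is base 2, and Illumina-sequenced genotypes needed ≥10 input reads and ≥1 read per output.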

| Variant | polymerase ribozyme fitness (log ratio) |
| --- | --- |
| A28C U55A C75G | ≤ -4.2 |
| A28U A37U U139A | ≤ -4.2 |
| A28G U31C U45A A98U | ≤ -4.2 |
| A26U G59U U90G U135G G143A U144G | ≤ -4.2 |
| C27U U33C G83C C87G | ≤ -4.2 |
| C27A G59A C95A U135C | ≤ -4.2 |
| A26U C54A G71A A122C U139A | ≤ -4.2 |
| C27G A47C A64G U111G | ≤ -4.2 |
| A26U C51A A52C U90G U139G U148G | ≤ -4.2 |
| C27G G81A G84U G136U | ≤ -4.2 |
| C27G C93U U145G | ≤ -4.2 |
| C27U C57U A73G C87A G94U G141A U148A | ≤ -4.2 |
| C27G A91G | ≤ -4.2 |
| C27A U44A G48A | ≤ -4.2 |
| C27G U55A G59A A97G G100C G136A | ≤ -4.2 |
| A28U A40C A52G C85A C129G | ≤ -4.2 |
| A28G U53G C85A U104G A106G A138U A147G | ≤ -4.2 |
| C27A C69U G70C G92A C95U C103G U104G | ≤ -4.2 |
| C27A C35A G84U C103G | ≤ -4.2 |
| C27U A29G G48A G68A G94A C118A U134C | ≤ -4.2 |
| C27G A40U G42A A91G G126U U127A | ≤ -4.2 |
| C27U A52G C76G C85U G88C | ≤ -4.2 |
| A26U U45A G83U G92C A122U | ≤ -4.2 |
| A28U C103A A147C | ≤ -4.2 |

| Variant | polymerase ribozyme fitness (log ratio) |
| --- | --- |
| C27G A30U A91C A107C C129G U139G G141U A142C | ≤ -4.2 |
| C27G C32G A37U C72A G80A G83A G86U C105U G117C | ≤ -4.2 |
| C27U A47C G83A C149G | ≤ -4.2 |
| C27G C57U G58C G83C A97G | ≤ -4.2 |
| A28G C32G G84U C93A G136U | ≤ -4.2 |
| C27A C87A A110U C116A G140U | ≤ -4.2 |
| A26U C85A A97U | ≤ -4.2 |
| A28C U53A U56A A137G U148A | ≤ -4.2 |
| A28G A41G A89G G136A | ≤ -4.2 |
| A28C C75A G92A C108G | ≤ -4.2 |
| C27G A49C C69U G84C U109G | ≤ -4.2 |
| A28C C51U C57A A73U C87G U101G A121U | ≤ -4.2 |
| C27A C63A G80C C85G A119C U144A | ≤ -4.2 |
| C27G G58C G71U C105U | ≤ -4.2 |
| C27G C43G C79U C87A | ≤ -4.2 |
| A28U C87A U144A | ≤ -4.2 |
| A26U G46U G48U G81U G83C C99G | ≤ -4.2 |
| A26U G62U U135A | -2.77 |
| C27U C35U G74C C79U G81C C85A A122U | ≤ -4.2 |
| C27G C93U G141C | -3.68 |
| A28C G81A U90C A150G | ≤ -4.2 |
| A28C A49G C63U A113U A115C | ≤ -4.2 |
| C27U C36A U53G G67U C85G U104G A150U | ≤ -4.2 |
| C27G G92C C105A C125G | ≤ -4.2 |

| Variant | polymerase ribozyme fitness (log ratio) |
| --- | --- |
| A28C U61A G88A | ≤ -4.2 |
| A28U C36G C95U G100U | ≤ -4.2 |
| A28C C87A C96A C99G C125U G140C | ≤ -4.2 |
| A28U A52C A97U A137U U139C | ≤ -4.2 |
| A28U C54U G68A A97U C108A | ≤ -4.2 |
| A28U A52C C99U G112C G136U | ≤ -4.2 |
| C27U G50C C114G | ≤ -4.2 |
| C27U U33C A37C U61A C85A C87G G117C | ≤ -4.2 |
| C27U C43U G46C A120G | ≤ -4.2 |
| A28C A37C C57A A73G C105G G124A | ≤ -4.2 |
| A28G G42C C43A U55A | ≤ -4.2 |
| A28C U44A A64C U77C G84U G141C | ≤ -4.2 |
| A28U C51U C93G A120C G140A | ≤ -4.2 |
| A28U A60G A66U A91U A107G C125G U135C | ≤ -4.2 |
| A28U A73U C95U U134A | ≤ -4.2 |
| C27G A106U | -3.92 |
| A26U G34C G83U C95G U145A A147U | ≤ -4.2 |
| A28C A30C A47G G50A C57G C63U G94A C125A U127G A137G | ≤ -4.2 |
| A28C C75U C85G | ≤ -4.2 |
| C27U G92C U146C U151G | ≤ -4.2 |
| C27A G59C C85A A89U U104A | ≤ -4.2 |
| A28G A39C G58A U61A C93A G140C | ≤ -4.2 |
| C27A G58C | ≤ -4.2 |
| C27G A66C C96A C99G A120C | ≤ -4.2 |

| Variant | polymerase ribozyme fitness (log ratio) |
| --- | --- |
| C27U C32U U53A G74C G83U C95G | ≤ -4.2 |
| C27G U61A C87U | ≤ -4.2 |
| A28G U55A | -2.49 |
| C27G A52G G92A | ≤ -4.2 |
| C27U A28U C57A A89U C95U C123U | ≤ -4.2 |
| A28G G94A | -3.42 |
| C27A A30U U44A C57A A97G A98U A119C A120G G128A | ≤ -4.2 |
| C27A U82C C93A A138U | ≤ -4.2 |
| A28C C35A C85U U134G | ≤ -4.2 |
| C27U C85U C105U A115C G140U U144A C149A | ≤ -4.2 |
| A28C A30G C93U C103U | -4.06 |
| A28C G34C A98G C99G C105U | ≤ -4.2 |
| C27G G50A C99G U102G G141C | ≤ -4.2 |
| A26U C54U C95U | -1.76 |
| C27U U77A G92C C103A C149U | ≤ -4.2 |
| C27A A39U U61A G80U A91U G94A C103G A150G | ≤ -4.2 |
| A28U G50A C85G | ≤ -4.2 |
| C27A A28U C38U A39U A47U | ≤ -4.2 |
| A28G C38U G48C C75A C87G C125U U134A A150U | ≤ -4.2 |
| A28U C51U C93U | ≤ -4.2 |
| A26U C43A A52U U78G C123U | ≤ -4.2 |
| A28U A39U A52G A73C C96U C105U C129A | ≤ -4.2 |
| A28U A49C U61A G92A A113G C149G | ≤ -4.2 |
| C27G A28C A41U A91G C93U | ≤ -4.2 |

| Variant | polymerase ribozyme fitness (log ratio) |
| --- | --- |
| C27G A40C G48A C63A G70U G81A G92A | ≤ -4.2 |
| A28G G50C G81C C95G C96U A98C A113U G143U | ≤ -4.2 |
| C27G A39C G59C C85G C105G | ≤ -4.2 |
| C27U G42A U56A A60G A66G C79G C85U C95U U151A G152U | ≤ -4.2 |
| C27U C76A | -2.31 |
| C27A G48C A52C U55A G68U C95A A138C | ≤ -4.2 |
| C27G C35G A49C G70C C79A C95G | ≤ -4.2 |
| A28C A52C C85A G86A G88A G94U C114U | ≤ -4.2 |
| C27A U82G C87G G94A U135A | ≤ -4.2 |
| C27U A47C C54A U61G U77G G140C | ≤ -4.2 |
| A26U G59A C87G | ≤ -4.2 |
| A28U C36U C85A A147U | ≤ -4.2 |
| A28C G140U | ≤ -4.2 |
| C27G A37C A47C C87G A115C | ≤ -4.2 |
| A28G C36G C38U G81A C103A G141A | ≤ -4.2 |
| A28U C96A | -3.93 |
| C27U G59A U78A C87U | ≤ -4.2 |
| C27G C32U C36U G88A C99U G141U G152C | -4.05 |
| A28C U53G G58A C76A G83U U90G | ≤ -4.2 |
| A28U C35U | -4.12 |
| C27A U31C A47U C85U U134G | ≤ -4.2 |
| A26U U104C G124C | -3.3 |
| A26U U148A | -4.11 |
| C27G C38U A49C G65C C87G C114A A119G G141A | ≤ -4.2 |

| Variant | polymerase ribozyme fitness (log ratio) |
| --- | --- |
| A28G C63G C96A C116U | ≤ -4.2 |
| A28U C35G C54A C79A G80C A89C G94A | ≤ -4.2 |
| A28U A49U U139G | ≤ -4.2 |
| A28C U45A U56A G58U A60G G92U | ≤ -4.2 |
| C27A U45A G58C C95U A115C C149G G152A | ≤ -4.2 |
| A28G C93A | ≤ -4.2 |
| A28C A49C C96U G133A U134G | -4.14 |
| A26U C93G | ≤ -4.2 |
| A26U G83C C125A U145C | ≤ -4.2 |
| C27A A39G U53C C95A A121U G136C | ≤ -4.2 |
| A26U C57A A60G A64U G84U | ≤ -4.2 |
| C27A G58C U111C | ≤ -4.2 |
| A28C C36G U56G G83U A107U C132U G152A | ≤ -4.2 |
| C27U G86U C87A | ≤ -4.2 |
| A28U C35U C87G A97U C103A G140A | ≤ -4.2 |
| A28C C43A G59A C95A | ≤ -4.2 |
| A26U G46U G58A A73U C85G U111G A150U | ≤ -4.2 |
| A28U A52U C93U C95A U102A C125G U134C G141U | ≤ -4.2 |
| A28C U77A G83U C99G C105G A120U U134A | ≤ -4.2 |
| A28C A30U A39C C76A C85U G124C | ≤ -4.2 |
| C27G U55G C79G C96A C118U G141C | ≤ -4.2 |
| C27U G68C A89G C93A A110G G136C | ≤ -4.2 |
| A28U C32G A41U A73G C85G G88U G136A | ≤ -4.2 |
| C27G A47G A98G | ≤ -4.2 |

| Variant | polymerase ribozyme fitness (log ratio) |
| --- | --- |
| A28C A47C G68C C79U C85A G88C U139G | ≤ -4.2 |
| C27G G84A G92C | ≤ -4.2 |
| A28C A30C A41U C57U A107C | ≤ -4.2 |
| C27G C36U G50U A73U U82A C95U | ≤ -4.2 |
| C27U G58C C87A A107U | ≤ -4.2 |
| A28G G140A | -4.13 |
| C27U C75U C93G | ≤ -4.2 |
| C27A U44G U78G A107U | ≤ -4.2 |
| A28C A40G G42A U56C C75U U134G U148C | ≤ -4.2 |
| A28G G84U G133C | ≤ -4.2 |
| C27U U31G A40G G48A A52C C95U A137G A138C | ≤ -4.2 |
| A28U A30C U53G A64U C118U | ≤ -4.2 |
| A26U G133U | ≤ -4.2 |
| C27G A28C A47U C116G A120G | ≤ -4.2 |
| C27G C93G | ≤ -4.2 |
| C27G C43U C75G U78G C129G G143A | ≤ -4.2 |
| A28U A40U A49U | ≤ -4.2 |
| C27G A66G G92A A107C | ≤ -4.2 |
| A26U C85U C105U A142C | -3.69 |
| A26U U78A C96A C116U U146C | ≤ -4.2 |
| A28C A39U C103U C116G U139G | ≤ -4.2 |
| A28C A52U A91U C95U A106G A121C | ≤ -4.2 |
| A28G U55A A98U C123U | ≤ -4.2 |
